Some test systems named below: 501Mel; A101D; A2058; A375.
What all share (experiment): cell count relative to DMSO control; melanoma cells; higher = more viable cells
Holding throughout (conditions): library dose: standard library concentration; 72 h

The other results are listed elsewhere or left out. Repeats are few or missing, and single values can be far off.
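Also: cells treated in 1,536-well plates, then fixed and DAPI-stained, with nuclei counted from automated high-throughput microscope images.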

Consider `NC(=O)Nc1cc(-c2cccc(F)c2)sc1C(=O)N[C@H]1CCCNC1` + O=c1cc(-c2cccc3c2Sc2ccccc2S3)oc(N2CCOCC2)c1 [KU55933] (first compound 0.1 µM, partner dose 5 µM), for which the cell count is 87.1% in the test with 501Mel, 68.1% in the test with A101D, 85.4% with A2058 and 55.4% with A375.

For `NC(=O)Nc1cc(-c2cccc(F)c2)sc1C(=O)N[C@H]1CCCNC1` + c1cc(-c2cnn3cc(-c4ccc(OCCN5CCCCC5)cc4)cnc23)ccn1 [Dorsomorphin] (first compound 0.1 µM, partner dose 2 µM), the cell count was 58.8% with 501Mel, 76.2% in the test on A101D, 100% with A2058 and 52% in the test with A375.

Turning to `NCC(=O)Nc1ccc(-n2nc(C(F)(F)F)cc2-c2ccc3c(ccc4ccccc43)c2)cc1` + O=c1cc(-c2cccc3c2Sc2ccccc2S3)oc(N2CCOCC2)c1 [KU55933] (first compound 5 µM, partner dose 5 µM), the cell count in the test with 501Mel was determined as 14.8%; in the test with A101D it was 55.7%; in the test on A2058, 97.1%; in the test on A375, 91.7%.

On to `C=CCn1c(=O)c2cnc(Nc3ccc(N4CCN(C)CC4)cc3)nc2n1-c1cccc(C(C)(C)O)n1` + CCCCCCCCCCCC1=C(O)C(=O)C=C(O)C1=O [Embelin] (first compound 0.1 µM, partner dose 6 µM), for which the cell count in the test on 501Mel turned out to be 69%; in the test on A101D it was 62.1%; in the test with A2058, 93.4%; in the test with A375, 65%.

`C[C@]1(c2nc3c(C(N)=O)cccc3[nH]2)CCCN1` [Veliparib] + N#Cc1c(O)c2c(-c3ccc(-c4ccccc4O)cc3)csc2[nH]c1=O [A769662] (first compound 7 µM, partner dose 10 µM): the cell count in the test on 501Mel stood at 77%; in the test with A101D it was 97.9%; with A2058 it was 80.6%; with A375 it was 107%.

With `Cc1nc(Nc2ncc(C(=O)Nc3c(C)cccc3Cl)s2)cc(N2CCN(CCO)CC2)n1` [dasatanib] + COc1cc2ncnc(Nc3ccc(Oc4ccccc4)cc3)c2cc1OC [SrcI1] (first compound 0.02 µM, partner dose 10 µM), the cell count with 501Mel was 80.6%; in the test with A101D, 70.4%; in the test with A2058, 67.9%; in the test with A375, 71.8%.

Consider `Cc1nc(Nc2ncc(C(=O)Nc3c(C)cccc3Cl)s2)cc(N2CCN(CCO)CC2)n1` [dasatanib] + Oc1cc(-c2nc(-c3ccccc3)[nH]c2-c2ccncc2)ccc1Cl [L779450] (first compound 0.02 µM, partner dose 1 µM), for which the cell count in the test with 501Mel came out at 68.9%; in the test on A101D, 61.5%; in the test on A2058, 73%; in the test with A375, 71.9%.

With `CO[C@@H]1[C@H](N(C)C(=O)c2ccccc2)C[C@H]2O[C@]1(C)n1c3ccccc3c3c4c(c5c6ccccc6n2c5c31)C(=O)NC4` [Midostaurin] + CCc1ccc(CCOc2ccc(CC3SC(=O)NC3=O)cc2)nc1 [pioglitazone] (first compound 0.4 µM, partner dose 10 µM), the cell count was found to be 86.5% in the test with 501Mel, 61.4% in the test with A101D, 44.2% in the test with A2058 and 69% in the test with A375.

On to `CN(C)S(=O)(=O)c1ccc2c(c1)/C(=C/c1cc3c([nH]1)CCCC3)C(=O)N2` + c1cc(-c2cnn3cc(-c4ccc(OCCN5CCCCC5)cc4)cnc23)ccn1 [Dorsomorphin] (first compound 2 µM, partner dose 2 µM), for which the cell count with 501Mel amounted to 68.5%; in the test on A101D it was 66%; in the test on A2058 it was 45%; in the test with A375 it was 109%.

For the molecule `NCC(=O)Nc1ccc(-n2nc(C(F)(F)F)cc2-c2ccc3c(ccc4ccccc43)c2)cc1` + COC(=O)c1sccc1S(=O)(=O)Nc1ccc(Nc2ccccc2)cc1OC [GSK0660] (first compound 5 µM, partner dose 5 µM), the cell count turned out to be 0.33% with 501Mel, 83.1% in the test on A101D, 85.7% with A2058 and 38.1% with A375.

Consider `C=CCn1c(=O)c2cnc(Nc3ccc(N4CCN(C)CC4)cc3)nc2n1-c1cccc(C(C)(C)O)n1` + N#Cc1c(O)c2c(-c3ccc(-c4ccccc4O)cc3)csc2[nH]c1=O [A769662] (first compound 0.1 µM, partner dose 10 µM), for which the cell count stood at 85.4% in the test on 501Mel, 61.3% in the test with A101D, 88% with A2058 and 91.3% in the test with A375.

On to `NC(=O)Nc1cc(-c2cccc(F)c2)sc1C(=O)N[C@H]1CCCNC1` + Cc1cc([N+](=O)[O-])ccc1NS(=O)(=O)c1cc(Cl)ccc1Cl [FH535] (first compound 0.1 µM, partner dose 5 µM), for which the cell count in the test with 501Mel amounted to 74.6%; with A101D, 63.7%; in the test on A2058, 77%; with A375 it was 79.2%.

Regarding `NCC(=O)Nc1ccc(-n2nc(C(F)(F)F)cc2-c2ccc3c(ccc4ccccc43)c2)cc1` + Oc1nc(-c2ccc(C(F)(F)F)cc2)nc2c1CSCC2 [XAV939] (first compound 5 µM, partner dose 10 µM), the cell count in the test on 501Mel was found to be 8.52%; in the test on A101D it was 76.2%; in the test with A2058, 78%; with A375, 53.7%.

For `C[C@]1(c2nc3c(C(N)=O)cccc3[nH]2)CCCN1` [Veliparib] + COc1ccc(-c2ccc3c(N4CCOCC4)nc(N4C[C@@H](C)O[C@@H](C)C4)nc3n2)cc1CO [KU0063794] (first compound 7 µM, partner dose 0.1 µM), the cell count amounted to 70.8% in the test on 501Mel, 75.5% in the test with A101D, 73.1% in the test with A2058 and 90.7% in the test with A375.

For `C[C@]1(c2nc3c(C(N)=O)cccc3[nH]2)CCCN1` [Veliparib] + COc1ccc(COc2ccc(Cc3cnc(N)nc3N)cc2OC)cc1 [GW2580] (first compound 7 µM, partner dose 5 µM), the cell count is 71.9% in the test with 501Mel, 71.5% in the test with A101D, 83.1% in the test on A2058 and 92.4% with A375.

For the molecule `C=CCn1c(=O)c2cnc(Nc3ccc(N4CCN(C)CC4)cc3)nc2n1-c1cccc(C(C)(C)O)n1` + Cn1cc(/C=C2\C(=O)Nc3cccnc32)c2ccccc21 [GW441756] (first compound 0.1 µM, partner dose 2 µM), the cell count with 501Mel was determined as 76.8%; with A101D it was 59.2%; with A2058, 84.6%; with A375, 47.4%.

For `CO[C@@H]1[C@H](N(C)C(=O)c2ccccc2)C[C@H]2O[C@]1(C)n1c3ccccc3c3c4c(c5c6ccccc6n2c5c31)C(=O)NC4` [Midostaurin] + O=C(Nc1ccccc1)c1cc([N+](=O)[O-])ccc1Cl [GW9662] (first compound 0.4 µM, partner dose 10 µM), the cell count in the test on 501Mel stood at 64.6%; with A101D it was 57.8%; with A2058, 68.3%; in the test with A375, 84.5%.

For the molecule `NCC(=O)Nc1ccc(-n2nc(C(F)(F)F)cc2-c2ccc3c(ccc4ccccc43)c2)cc1` + CCCCCCCCCCCC1=C(O)C(=O)C=C(O)C1=O [Embelin] (first compound 5 µM, partner dose 6 µM), the cell count is 2.14% with 501Mel, 75.9% in the test with A101D, 79% with A2058 and 63.7% in the test with A375.

For the molecule `Cc1nc(Nc2ncc(C(=O)Nc3c(C)cccc3Cl)s2)cc(N2CCN(CCO)CC2)n1` [dasatanib] + CCN(CC)CCCCNc1ncc2cc(-c3cc(OC)cc(OC)c3)c(NC(=O)NC(C)(C)C)nc2n1 [PD173074] (first compound 0.02 µM, partner dose 0.5 µM), the cell count was 72.5% in the test on 501Mel, 56.7% in the test with A101D, 62.9% in the test with A2058 and 62.6% with A375.

`C[C@]1(c2nc3c(C(N)=O)cccc3[nH]2)CCCN1` [Veliparib] + c1cc(-c2cnn3cc(-c4ccc(OCCN5CCCCC5)cc4)cnc23)ccn1 [Dorsomorphin] (first compound 7 µM, partner dose 2 µM): the cell count worked out at 55.2% in the test on 501Mel, 69.2% with A101D, 57.5% in the test on A2058 and 70% in the test on A375.

Turning to `CN(C)S(=O)(=O)c1ccc2c(c1)/C(=C/c1cc3c([nH]1)CCCC3)C(=O)N2` + Oc1nc(-c2ccc(C(F)(F)F)cc2)nc2c1CSCC2 [XAV939] (first compound 2 µM, partner dose 10 µM), the cell count in the test with 501Mel stood at 93.2%; with A101D it was 58.5%; in the test with A2058 it was 101%; in the test on A375, 118%.

In the case of `OCCn1cc(-c2cnc3nnn(Cc4ccc5ncccc5c4)c3n2)cn1` + CC(C)CCN1c2nc(Nc3cc(F)c(O)c(F)c3)ncc2N(C)C(=O)C1C [BID1870] (first compound 5 µM, partner dose 1 µM), the cell count stood at 86.8% in the test on 501Mel, 73.5% in the test on A101D, 95.2% in the test with A2058 and 63.8% with A375.

On to `C[C@]1(c2nc3c(C(N)=O)cccc3[nH]2)CCCN1` [Veliparib] + CCCCCCCCCCCC1=C(O)C(=O)C=C(O)C1=O [Embelin] (first compound 7 µM, partner dose 6 µM), for which the cell count in the test with 501Mel is 108%; in the test with A101D, 78.7%; in the test on A2058, 77.6%; in the test with A375, 101%.

`Cc1nc(Nc2ncc(C(=O)Nc3c(C)cccc3Cl)s2)cc(N2CCN(CCO)CC2)n1` [dasatanib] + CC(C)CCN1c2nc(Nc3cc(F)c(O)c(F)c3)ncc2N(C)C(=O)C1C [BID1870] (first compound 0.02 µM, partner dose 1 µM): the cell count in the test on 501Mel came to 66.9%; with A101D, 57.8%; in the test on A2058 it was 54.6%; with A375, 72.4%.

For the molecule `CN(C)S(=O)(=O)c1ccc2c(c1)/C(=C/c1cc3c([nH]1)CCCC3)C(=O)N2` + Oc1cc(-c2nc(-c3ccccc3)[nH]c2-c2ccncc2)ccc1Cl [L779450] (first compound 2 µM, partner dose 1 µM), the cell count was 70.7% in the test on 501Mel, 71% with A101D, 88.1% in the test on A2058 and 91.3% in the test with A375.

With `Cc1nc(Nc2ncc(C(=O)Nc3c(C)cccc3Cl)s2)cc(N2CCN(CCO)CC2)n1` [dasatanib] + COc1ccc2c(c1)CCC1C2CCC2(C)C(NCCCCCCN3C(=O)C=CC3=O)CCC12 [U73122] (first compound 0.02 µM, partner dose 2 µM), the cell count in the test with 501Mel is 105%; in the test with A101D, 40.1%; in the test with A2058, 62.2%; with A375, 59%.

As to `CO[C@@H]1[C@H](N(C)C(=O)c2ccccc2)C[C@H]2O[C@]1(C)n1c3ccccc3c3c4c(c5c6ccccc6n2c5c31)C(=O)NC4` [Midostaurin] + COc1cc(N2CCC(N3CCN(C)CC3)CC2)ccc1Nc1ncc(Cl)c(Nc2ccccc2S(=O)(=O)C(C)C)n1 [NVP-TAE684] (first compound 0.4 µM, partner dose 0.4 µM), the cell count is 87.4% in the test on 501Mel, 71.6% with A101D, 40.4% in the test on A2058 and 78.6% with A375.

For `Cc1nc(Nc2ncc(C(=O)Nc3c(C)cccc3Cl)s2)cc(N2CCN(CCO)CC2)n1` [dasatanib] + O=C(Nc1ccccc1)c1cc([N+](=O)[O-])ccc1Cl [GW9662] (first compound 0.02 µM, partner dose 10 µM), the cell count stood at 71.4% in the test on 501Mel, 49% with A101D, 77% in the test with A2058 and 80.4% in the test on A375.

Take `NC(=O)Nc1cc(-c2cccc(F)c2)sc1C(=O)N[C@H]1CCCNC1` + CCc1ccc(CCOc2ccc(CC3SC(=O)NC3=O)cc2)nc1 [pioglitazone] (first compound 0.1 µM, partner dose 10 µM): the cell count in the test on 501Mel amounted to 88.6%; with A101D it was 57.3%; in the test on A2058 it was 82.9%; in the test with A375 it was 49.3%.

The record behind these values is the supplement of paper PMC4604168 (melanoma cell lines).
